Source: the GPR68 mutational scans of Howard et al. (2025)

B1: GPR68, Q15743 (parent)
chain: MGNITADNSSMSCTIDHTIHQTLAPVVYVTVLVVGFPANCLSLYFGYLQIKARNELGVYLCNLTVADLFYICSLPFWLQYVLQHDNWSHGDLSCQVCGILLYENIYISVGFLCCISVDRYLAVAHPFRFHQFRTLKAAVGVSVVIWAKELLTSIYFLMHEEVIEDENQHRVCFEHYPIQAWQRAINYYRFLVGFLFPICLLLASYQGILRAVRRSHGTQKSRKDQIQRLVLSTVVIFLACFLPYHVLLLVRSVWEASCDFAKGVFNAYHFSLLLTSFNCVADPVLYCFVSETTHRDLARLRGACLAFLTCSRTGRAREAYPLGAPEASGKSGAQGEEPELLTKLHPAFQTPNSPGSGGFPTGRLA

Columns and labels:
[1] = variants of: B1; assay: cAMP reporter score (Enrich2 score, wild type = 0); higher = more signal; HEK293T, FACS bins
[2] = variants of: B1; assay: surface expression score (Enrich2 score, wild type = 0); higher = more signal; HEK293T, FACS bins

Variant | cAMP reporter score ([1]; pH 5.5) | cAMP reporter score ([1]; pH 6) | cAMP reporter score ([1]; pH 6, modulator: ogerin) | cAMP reporter score ([1]; pH 6.5, modulator: ogerin) | surface expression score [2]
P283_L285del | -1.4 | -1.46 | -1.74 | -1.29 | -2.18
P283_V284del | -2.09 | -1.33 | – | -0.833 | -2.47
P283_V284insG | -1.56 | -0.948 | -1.67 | -1.3 | -2.27
MGNITADNSSMSCTIDHTIHQTLAPVVYVTVLVVGFPANCLSLYFGYLQIKARNELGVYLCNLTVADLFYICSLPFWLQYVLQHDNWSHGDLSCQVCGILLYENIYISVGFLCCISVDRYLAVAHPFRFHQFRTLKAAVGVSVVIWAKELLTSIYFLMHEEVIEDENQHRVCFEHYPIQAWQRAINYYRFLVGFLFPICLLLASYQGILRAVRRSHGTQKSRKDQIQRLVLSTVVIFLACFLPYHVLLLVRSVWEASCDFAKGVFNAYHFSLLLTSFNCVADPALYCFVSETTHRDLARLRGACLAFLTCSRTGRAREAYPLGAPEASGKSGAQGEEPELLTKLHPAFQTPNSPGSGGFPTGRLA [V284A] | -0.548 | – | -0.057 | -0.986 | -0.137
MGNITADNSSMSCTIDHTIHQTLAPVVYVTVLVVGFPANCLSLYFGYLQIKARNELGVYLCNLTVADLFYICSLPFWLQYVLQHDNWSHGDLSCQVCGILLYENIYISVGFLCCISVDRYLAVAHPFRFHQFRTLKAAVGVSVVIWAKELLTSIYFLMHEEVIEDENQHRVCFEHYPIQAWQRAINYYRFLVGFLFPICLLLASYQGILRAVRRSHGTQKSRKDQIQRLVLSTVVIFLACFLPYHVLLLVRSVWEASCDFAKGVFNAYHFSLLLTSFNCVADPCLYCFVSETTHRDLARLRGACLAFLTCSRTGRAREAYPLGAPEASGKSGAQGEEPELLTKLHPAFQTPNSPGSGGFPTGRLA [V284C] | 0.639 | 0.489 | 0.307 | 0.588 | 0.024
MGNITADNSSMSCTIDHTIHQTLAPVVYVTVLVVGFPANCLSLYFGYLQIKARNELGVYLCNLTVADLFYICSLPFWLQYVLQHDNWSHGDLSCQVCGILLYENIYISVGFLCCISVDRYLAVAHPFRFHQFRTLKAAVGVSVVIWAKELLTSIYFLMHEEVIEDENQHRVCFEHYPIQAWQRAINYYRFLVGFLFPICLLLASYQGILRAVRRSHGTQKSRKDQIQRLVLSTVVIFLACFLPYHVLLLVRSVWEASCDFAKGVFNAYHFSLLLTSFNCVADPDLYCFVSETTHRDLARLRGACLAFLTCSRTGRAREAYPLGAPEASGKSGAQGEEPELLTKLHPAFQTPNSPGSGGFPTGRLA [V284D] | -1.98 | -1.16 | -0.309 | -0.889 | -1.99
MGNITADNSSMSCTIDHTIHQTLAPVVYVTVLVVGFPANCLSLYFGYLQIKARNELGVYLCNLTVADLFYICSLPFWLQYVLQHDNWSHGDLSCQVCGILLYENIYISVGFLCCISVDRYLAVAHPFRFHQFRTLKAAVGVSVVIWAKELLTSIYFLMHEEVIEDENQHRVCFEHYPIQAWQRAINYYRFLVGFLFPICLLLASYQGILRAVRRSHGTQKSRKDQIQRLVLSTVVIFLACFLPYHVLLLVRSVWEASCDFAKGVFNAYHFSLLLTSFNCVADPELYCFVSETTHRDLARLRGACLAFLTCSRTGRAREAYPLGAPEASGKSGAQGEEPELLTKLHPAFQTPNSPGSGGFPTGRLA [V284E] | -0.9 | -1.21 | -1.85 | -1.43 | -2.6

Scores whose standard error is large were omitted. Two further conditions of the source, in which the scores hardly spread, are not listed. Read del as a deletion of the residues named and ins as an insertion between two positions. For part of these data: How much ogerin was present is not stated here.
